Where a chain is given by its changes, count along the chain named.

Experiment [1] deals with T1, Ras suppressor-1 (Rsu-1), wild type (human, UniProt Q15404 1-277).
T1 sequence: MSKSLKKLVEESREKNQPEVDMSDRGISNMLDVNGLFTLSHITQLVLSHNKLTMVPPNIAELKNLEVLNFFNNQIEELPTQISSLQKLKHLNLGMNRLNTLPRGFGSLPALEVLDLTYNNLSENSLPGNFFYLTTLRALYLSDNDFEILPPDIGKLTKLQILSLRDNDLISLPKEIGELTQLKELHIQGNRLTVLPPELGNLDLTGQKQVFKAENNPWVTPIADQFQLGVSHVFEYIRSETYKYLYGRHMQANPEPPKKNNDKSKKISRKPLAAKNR
As to the kind of experiment: BLI. In general terms: In BLI a coated tip is dipped into the sample, and binding shifts an interference pattern.

Experiment [2] has as its target T1, Ras suppressor-1 (Rsu-1), wild type. The experiment is described as follows: SEC. On the technique in general: Size exclusion chromatography separates by hydrodynamic size, large species first.
Experiment [3] concerns the target T2, Rsu-1 double mutant (FRAA) (human, UniProt Q15404 1-277, Phe71 to alanine (FRAA) | Arg165 to alanine (FRAA)).
T2 sequence: T1 sequence with F71A, R165A
The experiment is described as follows: BLI.

B1: GST-fused PINCH-1 LIM4-5 domain (domain or fragment)
chain: GVPICGACRRPIEGRVVNAMGKQWHVEHFVCAKCEKPFLGHRHYERKGLAYCETHYNQL[letters of about 80 residues left out]
Usually Kd stands for the equilibrium constant for the complex coming apart. In experiment [1], B1 yielded a dissociation constant (Kd) of 1.37 ± 0.5 nM.

B2: PINCH-1 LIM5 domain (size exclusion, thermal shift) (domain or fragment)
chain: not shown
As for B2, the binding result in experiment [2] is recorded as “binds”.

B3: GST-fused PINCH-1 LIM5 domain, Asp295 substituted by Val295 (domain or fragment)
chain: not shown
As for B3, in experiment [1], the binding result is listed as “binds”.

B4: GST-fused PINCH-1 LIM5 domain (domain or fragment)
chain: not shown
In the case of B4, the binding result in experiment [1] is “binds”. The Kd in experiment [3] was ~1000 nM.
